# Where “and” joins values, the source holds several entries; their conditions need not be identical. Equal entries are not always repeated. In all, about 110,000 compounds went through this assay and about 230 (0.21%) showed an effect of 50% or more. Some of the results follow.
# Target: DPAP1 (Plasmodium falciparum, UniProt Q8IIJ9)
# Experiment: primary screen, percent inhibition; read by cleavage of a fluorogenic dipeptide substrate; higher = more effect of the substance
# Design: species or system P. falciparum D10 trophozoite lysates; single well
# 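Also: 30 min substrate incubation versus DMSO and 10 µM JCP410 controls.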
# Sequence of DPAP1 (Q8IIJ9 whole entry, looked up): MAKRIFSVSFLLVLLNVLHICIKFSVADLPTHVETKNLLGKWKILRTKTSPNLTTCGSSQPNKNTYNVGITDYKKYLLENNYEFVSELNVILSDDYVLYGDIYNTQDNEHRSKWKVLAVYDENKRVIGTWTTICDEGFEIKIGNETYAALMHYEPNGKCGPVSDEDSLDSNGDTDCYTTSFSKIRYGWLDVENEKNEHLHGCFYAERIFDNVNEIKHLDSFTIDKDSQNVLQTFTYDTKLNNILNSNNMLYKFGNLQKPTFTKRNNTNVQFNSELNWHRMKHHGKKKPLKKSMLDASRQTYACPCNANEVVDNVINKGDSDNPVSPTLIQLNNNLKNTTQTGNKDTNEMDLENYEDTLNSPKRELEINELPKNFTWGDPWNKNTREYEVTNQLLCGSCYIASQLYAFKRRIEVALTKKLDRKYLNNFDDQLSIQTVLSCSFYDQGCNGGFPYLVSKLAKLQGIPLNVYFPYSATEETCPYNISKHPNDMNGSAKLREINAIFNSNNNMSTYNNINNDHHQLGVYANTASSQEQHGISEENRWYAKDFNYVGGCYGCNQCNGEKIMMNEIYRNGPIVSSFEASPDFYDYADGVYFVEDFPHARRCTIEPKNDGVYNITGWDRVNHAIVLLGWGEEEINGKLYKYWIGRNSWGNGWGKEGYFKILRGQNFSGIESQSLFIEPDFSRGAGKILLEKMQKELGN
row,SMILES,% Inhibition @ 10 uM
1,CCc1ccc(S(=O)(=O)N=C2C=CC(=O)C=C2)cc1,7.76%
2,CC1=C(c2ccc(C)cc2)S(=O)(=O)N(CC(=O)N2CCN(c3ccccn3)CC2)C1=O,-3.34%
3,CC(=O)Nc1ccc(C(=O)Nc2ccccc2Cl)cc1,7.65%
4,O=C1c2ccccc2C(=O)N1CCc1nn[nH]n1,-2.19%
5,O=C(CNS(=O)(=O)c1ccc2c(c1)C(=O)c1ccccc1C2=O)c1ccccc1,-1.68%
6,COc1cc(C(=O)Nc2c(C)cccc2C)ccc1OC(F)F,0.389%
7,COc1cc(CNc2ccccc2)cc2c1OCO2,0.177%
8,COc1ccc(C(=O)N(Cc2ccco2)Cc2ccccc2Cl)cc1,1.25%
9,COc1ccc2nc3[nH]nc(NC(=O)Cc4ccccc4OC)c3cc2c1,-2.16%
10,CCOC(=O)c1c(C)[nH]c(C)c1S(=O)(=O)N1CCC(C(=O)Nc2ncccc2C)CC1,2.41%
11,CCCCn1c(=N)n(CC(O)c2ccc(Cl)cc2)c2ccccc21 (stereo not drawn),3%
12,CCOc1ccccc1C(=O)O/N=C(\N)c1cccnc1,-2.98%
13,CCN1C(=O)NC(c2ccc(Cl)cc2)C(C(=O)OCCOc2ccccc2)=C1C (stereo not drawn),8.98%
14,COc1ccc(S(=O)(=O)N(C)CC(=O)NC2CCCC2)cc1,5.46%
15,COc1ccc(OC)c(NC(=O)C2c3ccccc3Oc3ccccc32)c1,5.7%
16,O=C(NCc1ccccc1F)c1ccc(Cn2cc(Br)cn2)cc1,5.79%
17,CCOc1ccc(CCNC(=O)Cn2nc(C)n3c(cc4cc(F)ccc43)c2=O)cc1OCC,-1.7%
18,O=C(c1ccc2c(c1)OCO2)N1CCC(Cc2ccccc2)CC1,-1.54%
19,O=S(=O)(Nc1ccccc1O)c1ccc(Cl)cc1,-4.35%
20,Cc1nn(C(C)C(=O)NCCN2CCCCCC2)c(=O)c2nn(-c3ccccc3)c(C)c12 (stereo not drawn),0.227%
21,CCOc1ccc2c(c1)S/C(=C/c1ccccc1O)C2=O,1.39%
22,Cc1[nH]c(C(=O)NCCCN2CC(C)CC(C)C2)c(C)c1C(=O)NC1CCCCC1 (stereo not drawn),3.3%
23,Cc1ccc(S(=O)(=O)N(CC(=O)Nc2ccccc2F)Cc2cccc(C)c2)cc1,1.08%
24,Cc1ccc2cc(C)c(NCc3ccncc3)nc2c1,1.72%
25,CC(C)C[C@H](NC(=O)OCc1ccccc1)C(=O)N[C@@H]1CCN(C#N)C1,-5.64%
26,CCOCCCN(C)C1CCN(S(=O)(=O)c2csc(C(N)=O)c2)CC1,-7.09%

row,SMILES,% Inhibition @ 10 uM
1,CC(CCN1CCN(Cc2ccccc2)CC1)c1ccccc1 (stereo not drawn),-4.04%
2,CC(C)=CCCCCCCN1CCN(c2cccc(Cl)c2)CC1,-0.446%
3,CCCC1=Nc2ncnn2C(c2ccccc2Cl)/C1=C(/O)OCC (stereo not drawn),0.0842%
4,N#C/C(=C\c1coc2ccccc2c1=O)C(=O)Nc1nc2ccccc2s1,-5.76%
5,Cc1nn(Cc2c(F)cccc2Cl)c(C)c1NC(=O)c1ccn(C)n1,-4.39%
6,CCN(CC)c1ccc(C2C3=C(O)CCCC3=NC(C)=C2C(=O)Nc2ccc(F)cc2)cc1 (stereo not drawn),-0.941%
7,COc1ccc(CN2CCN(c3ccc(F)cc3)CC2)cc1,-3.77%
8,Cc1[nH]c2ccccc2c1CCNc1ncnc2sc(C)c(C)c12,-0.403%
9,CCOC(=O)Cc1c(C)nn(-c2ccccc2)c1C,0.035%
10,CCCc1nn(-c2ccc(F)cc2)c(O)c1/C=N/CCO,-2.77%
11,COc1ccc(CN(C)S(=O)(=O)c2nnc(NC(=O)C(C)(C)C)s2)cc1OC,3.25%
12,CCOc1ccccc1NC(=O)CN(C1CCCCC1)S(C)(=O)=O,-5.15%
13,Cc1ccc(OC(C)C(=O)N(Cc2ccccc2F)C2CCS(=O)(=O)C2)cc1C (stereo not drawn),-3.12%
14,CCCCOC(=O)Nc1ccc(S(=O)(=O)Nc2ccc(Br)cc2)cc1,-3.35%
15,C=CCNc1nc(C2COc3ccccc3O2)cs1 (stereo not drawn),-4.15% and -3.85%
16,CCCCN(CC)CCNC(=O)CCn1c(=O)c2cccn2c2cccnc21,0.951%
17,CCN(CC)C(=O)NC1C(NC(=O)N(CC)CC)N(C)C(=O)N1C (stereo not drawn),-7.58%
18,COc1ccc(-c2noc(CC(=O)NC3CCCc4ccccc43)n2)cc1 (stereo not drawn),-0.822%
19,COc1cc(C)ccc1S(=O)(=O)NC1CC(C)(C)NC(C)(C)C1,-3.49%
20,COc1cc(-c2nnc3n(CC(C)C)c(=O)c4ccccc4n23)ccc1O,-3.51%
21,CC(Oc1ccc(Cl)cc1Cl)C(=O)Nc1ccc(S(=O)(=O)N2CCCC2)cc1 (stereo not drawn),3.24%
22,CCOC(=O)c1sc2nc3c(cc2c1N)CN(Cc1ccccc1)CC3,2.34%
23,Cc1cn2cccc(C)c2n1,0.66%
24,C=CCN(CC=C)C(=O)c1sc2nc(C)cc(C)c2c1NC(=O)c1ccccc1Cl,6.73%
25,Cn1c2ccccc2c2cc(C3CC(=O)Oc4c3c(=O)oc3ccccc43)ccc21 (stereo not drawn),1.32%
26,COC(=O)C1C[C@@H](O)CN1CC1CC=CCC1 (stereo partly drawn),-4.8%

row,SMILES,% Inhibition @ 10 uM
1,CC1CCCCC1N1CC(=O)N(Cc2ccc(F)cc2)C(c2ccc(Cl)cc2)C1=O (stereo not drawn),-0.406%
2,COc1cc(C)c(CN2CCc3c([nH]c4ccccc34)C2)cc1C,-2%
3,CCOCCn1c(CN2CCCCC2C)nc2c1c(=O)n(C)c(=O)n2C (stereo not drawn),-5.1%
4,COc1cc(OC)cc(C(=O)/N=c2\sc(C)c(-c3ccccc3)n2C)c1,-1.61%
5,O=C(/C=C/c1ccc([N+](=O)[O-])cc1)NCCc1ccccn1,4.89%
6,CCCCCC(C)NC(=O)c1ccc(Cl)c(Cl)c1 (stereo not drawn),-4.21%
7,O=C(COc1ccc(C2N(Cc3ccccc3)CCN2Cc2ccccc2)cc1)N1CCOCC1,20.5%
8,O=C(NCCC1=CCCCC1)C(c1ccccc1)N1Cc2ccccc2C1=O (stereo not drawn),2.08%
9,Cc1ccc(CC(=O)NCCCn2ccnc2)cc1,3.87%
10,C=CCOC(=O)C1=C(C)N=C2CCCC(O)=C2C1c1cc(OC)c(OC)c(OC)c1 (stereo not drawn),2.45%
11,CC1=NN(C(=O)c2cccc(N(C)C)c2)C(O)(C(F)(F)F)C1 (stereo not drawn),-12.5%
12,CCOCCCNC(=O)Cn1nc(C)c2sc3ccccc3c2c1=O,-0.698%
13,CC(NC(=O)c1cc(S(=O)(=O)N2CCCC2)cn1C)c1ccccc1 (stereo not drawn),-5.99%
14,Cc1ccc(S(=O)(=O)NCCc2ccncc2)cc1,-8.77%
15,O=C(CNC(=O)c1cccs1)NCCN1CCC(Cc2ccccc2)CC1,-4.97%
16,CCc1ccc(C2C(C(=O)OC)=C(C)N=C(C)/C2=C(/O)OC)cc1 (stereo not drawn),4.35%
17,CCC(Oc1ccccc1)C(=O)Nc1ccc(OC)cc1OC (stereo not drawn),2.36%
18,Cc1ccc(C(=O)N2CCN(C(=O)CSc3nc4ccccc4s3)C2)cc1,-3.5%
19,CC(C)Cc1ccc(C(C)C(=O)NC(C)C)cc1 (stereo not drawn),0.00178%
20,CC(C)(C)C1=Nn2c(nnc2-c2ccc(Cl)cc2Cl)SC1,6.05%
21,c1ccc(Nc2c3ccccc3nc3ccccc23)nc1,-8.71%
22,O=P(O)(CN1CCOCC1)CN1CCOCC1,-4.01%
23,CC1=C(C(=O)NCc2cccnc2)C2(CCCCC2)OC1=O,1.55%
24,Cc1cc(C)c2c(N)c(-c3nc4ccccc4[nH]3)sc2n1,2.18%
25,CN(C)c1nc(N)nc(-c2ccco2)n1,-3.38%
26,COc1ccc(CCNC(=O)CCc2c(C)nc3ncnn3c2O)c(OC)c1,-4.97%

row,SMILES,% Inhibition @ 10 uM
1,COc1ccc(S(=O)(=O)N2CCC(C(N)=O)CC2)c2ccccc12,-2.66%
2,O=C(O)CCCCCNC1CCS(=O)(=O)C1 (stereo not drawn),0.0539%
3,COc1ccc(-c2[nH]ncc2/C=C/c2cc(C(F)(F)F)nc(O)n2)cc1,-1.69%
4,Cc1cc(C)n(C(=O)CCC(=O)NCc2ccccc2)n1,-5.28%
5,O=C(Cn1ncc2c3ccccc3nc-2c1O)NCCC1=CCCCC1,-3.47%
6,CC1=C(C)CC(C(=O)Nc2sc3c(c2C(N)=O)CCCC3)C(C(=O)O)C1 (stereo not drawn),3.67%
7,CC(C)NC(=O)c1nnc(-c2ccccc2)o1,2%
8,O=C1CCCc2sc([N+](=O)[O-])cc21,-3.82%
9,O=C(NC(c1ccccc1)c1ccccc1)c1ccc(Br)cc1,-1.93%
10,CCc1c(C)sc(NC(=O)c2ccccc2OC)c1C(N)=O,2.01%
11,CN1CCc2c1nc1ccccc1c2NC(=O)C12CC3CC(CC(C3)C1)C2,27.1%
12,CCOc1ccc(S(=O)(=O)Nc2ccc(O)c(C(=O)O)c2)cc1,2.86%
13,CN1C(=O)S/C(=C/c2ccc(N3CCOCC3)cc2)C1=O,5.31%
14,CCC(C)c1ccc(O[C@@H]2O[C@H](CO)[C@@H](O)[C@H](O)[C@H]2NC(C)=O)cc1 (stereo partly drawn),1.64%
15,O=C(CCCCC(=O)NC1CCCC1)NC1CCCC1,-2.77%
16,Cc1cc2c(cc3c(SCc4nc(-c5ccccc5F)oc4C)nncn32)o1,0.0525%
17,Cc1occc1C(=O)NCc1ccc(Cl)cc1,1.92%
18,O=C(NC1(Cc2ccccc2F)N=C2C=CC=CN2C1=O)c1ccccc1 (stereo not drawn),-0.637%
19,CCc1nc(C)ccc1O,-0.128%
20,Cn1c(=O)c2c(-c3ccccc3Br)n(-c3ccc4c(c3)nc(CO)n4C)cc2n(C)c1=O,0.758%
21,CCCC12CN3CC(CCC)(CN(C1)C3C(O)C(O)C(O)C(O)CO)C2=O (stereo not drawn),2.95%
22,COc1ccc(/C=C2\SC(=O)N(C)C2=O)c(OC)c1,-6.25%
23,CCOC(=O)NC(=O)c1cn(Cc2ccccc2)c(=O)n(C)c1=O,2.92%
24,CCN(CC)c1ccc(NC(=O)Cc2ccc(OC)cc2)cc1,-5.95%
